In the supplement of paper PMC3334620:
Over roughly 33,000 sequences, “E-score (-0.5 to 0.5)” has its median near -0.053; the highest 2% begin near 0.37. Some of the results follow.

These sequences were tested against Hap1 (UniProt P0CE41) (assay: PBM E-score (8-mer binding enrichment) (E-score (-0.5 to 0.5)); higher = stronger / more preferred TF binding; most listed sequences are background and not binding sites). Conditions: protein concentration: 200 nM; construct: GST-DNA-binding domain.
In short: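 Masliner-normalised scans of fluorescent anti-GST signal were the basis for scoring. That signal came from GST-tagged yeast transcription factors applied at about 100-200 nM to double-stranded universal all-10-mer Agilent arrays on fresh or once-stripped slides. Each ungapped eight-base word, pooled with its reverse complement, received an E-score from the Universal PBM Analysis Suite.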

Chain of UniProt P0CE41 (P0CE41 whole entry, the tested form may be a part): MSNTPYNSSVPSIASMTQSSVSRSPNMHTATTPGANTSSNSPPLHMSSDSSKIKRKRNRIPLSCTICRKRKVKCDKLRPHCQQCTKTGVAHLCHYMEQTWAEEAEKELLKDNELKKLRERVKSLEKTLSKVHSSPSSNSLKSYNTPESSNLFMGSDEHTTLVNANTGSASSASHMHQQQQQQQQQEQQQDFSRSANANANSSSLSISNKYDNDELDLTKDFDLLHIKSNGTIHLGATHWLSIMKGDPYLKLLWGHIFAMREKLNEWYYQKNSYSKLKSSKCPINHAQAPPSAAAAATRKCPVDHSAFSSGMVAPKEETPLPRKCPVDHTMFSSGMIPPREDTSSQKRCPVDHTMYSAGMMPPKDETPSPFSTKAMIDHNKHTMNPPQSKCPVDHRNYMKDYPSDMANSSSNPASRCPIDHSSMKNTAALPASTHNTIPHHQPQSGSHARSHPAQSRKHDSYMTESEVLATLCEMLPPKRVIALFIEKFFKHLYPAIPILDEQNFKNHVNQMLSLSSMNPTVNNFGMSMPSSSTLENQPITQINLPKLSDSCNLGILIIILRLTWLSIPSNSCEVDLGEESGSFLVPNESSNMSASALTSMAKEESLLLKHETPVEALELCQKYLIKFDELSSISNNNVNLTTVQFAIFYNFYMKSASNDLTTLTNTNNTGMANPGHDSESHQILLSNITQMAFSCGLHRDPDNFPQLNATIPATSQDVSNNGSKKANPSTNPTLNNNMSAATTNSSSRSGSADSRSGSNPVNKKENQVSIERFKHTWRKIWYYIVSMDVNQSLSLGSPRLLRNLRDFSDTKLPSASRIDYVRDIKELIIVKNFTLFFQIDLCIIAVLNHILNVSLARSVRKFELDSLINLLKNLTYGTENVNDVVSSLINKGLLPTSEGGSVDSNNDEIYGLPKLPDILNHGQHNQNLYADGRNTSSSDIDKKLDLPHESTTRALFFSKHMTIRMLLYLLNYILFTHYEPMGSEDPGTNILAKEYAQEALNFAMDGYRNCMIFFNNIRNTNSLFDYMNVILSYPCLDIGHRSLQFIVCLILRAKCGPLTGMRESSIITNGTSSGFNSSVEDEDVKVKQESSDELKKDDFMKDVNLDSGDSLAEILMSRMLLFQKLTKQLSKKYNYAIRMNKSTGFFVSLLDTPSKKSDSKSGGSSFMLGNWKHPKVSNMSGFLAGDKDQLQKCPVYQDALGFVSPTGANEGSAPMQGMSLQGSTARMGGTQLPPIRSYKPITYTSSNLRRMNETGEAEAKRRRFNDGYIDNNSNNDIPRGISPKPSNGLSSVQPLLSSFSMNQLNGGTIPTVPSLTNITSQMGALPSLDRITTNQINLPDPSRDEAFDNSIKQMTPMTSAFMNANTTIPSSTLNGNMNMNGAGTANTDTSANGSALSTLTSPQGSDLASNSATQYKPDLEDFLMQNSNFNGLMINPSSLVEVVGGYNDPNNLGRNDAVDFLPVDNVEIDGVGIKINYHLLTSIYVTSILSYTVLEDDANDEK

Sequence	PBM E-score
GCAGCCCA	-0.212
AGTTTGGA	-0.274
AAAATATA	0.0476
ATGCAAGG	-0.12
GAGCCAAA	-0.026
TCAACTCA	-0.172
AATCAGGT	0.0335
AAGTTCAA	0.0648
AATCTCCC	0.00843
AGCTACCA	-0.185
GATTTGCC	0.112
CTATAAAG	0.00027
GACCGTGA	0.0518
AAAGCAAA	-0.0867
CACCCATC	-0.0437
CTGTGGCC	0.0162
AGCTGTTC	-0.097
AAACAGGT	-0.189
CAATTAAG	0.0131
ACGAATGG	0.0399
AATGCGCT	-0.108
CAACGCTA	-0.115
CTTTGGGC	0.118
CGCAACCA	0.0242
GCTAACCC	0.0709

Sequence	PBM E-score
CCCAGCAA	-0.0975
ATAGCTAG	-0.302
CGAGAGGA	-0.0655
GTCAAGGA	-0.0786
CATTGCAG	-0.271
CGACGGTA	0.148
AGTTGACC	0.234
CCAGAGAC	-0.166
GATTTCTA	0.203
TCATCACA	-0.389
GAAGATTA	0.0781
AACGAATT	0.0336
TAGGTGCA	-0.193
ACACAGCT	-0.24
CCAACAAA	-0.097
AAACCTAA	0.0533
ACAGGAAG	-0.141
GAAGAACA	0.066
GACTCATC	-0.17
CAGGTGCC	-0.0661
ACGCACGG	0.162
ATTCGGTA	0.146
GTCGATAA	-0.0382
AGATGGAC	-0.0623
ACTGAGCA	-0.292

Sequence	PBM E-score
AAAGAAGT	-0.0547
CAACTTGA	0.0376
ATGGGGGA	-0.0747
CGTGCAGA	-0.137
CCGTGTGA	0.0641
TCTCGGAA	0.306
AATTAAGG	-0.0963
CATTCGAG	-0.135
AGCCAAAG	-0.282
CAGGGAAC	-0.29
AAGAACCA	-0.0356
AATACGCT	0.0629
AATTCAGT	-0.197
AAATGTGC	0.115
TGCGACCA	-0.0509
GGCTCCGA	0.221
AATTACAT	0.0504
CGGGACAA	0.135
CATATGGC	-0.0915
ACATGAAA	-0.178
CAGATGGC	-0.0975
GGTCACTA	-0.0163
ATTTGAGG	-0.0763
GTTGGTGA	-0.132
ATTCGGAC	0.382

Sequence	PBM E-score
GGCACCAA	0.118
GATGTAGA	-0.107
AACGCAAC	0.00727
ACTAATAT	0.0405
ATCGGTCG	0.352
GGTCTACA	-0.132
AAAGCTCG	0.0753
GTAAATGA	-0.0599
CTGACTTA	-0.0406
ACTTCTCT	-0.183
AATTGCCC	0.101
CTTACATC	0.0233
TACCGTGA	0.0524
GAGACGGA	0.242
ACTGTCAA	-0.222
ATAGAGCG	-0.0445
CTTGAGTC	-0.0518
ATGGTGCA	-0.214
CCAGAACG	-0.0975
ACCGGTCA	0.256
ATCGCCCG	0.372
AGCAGGCT	-0.182
CACTGGTA	-0.185
CCATCGTC	-0.0344
GGTACACC	-0.183

Sequence	PBM E-score
AATAGAAT	-0.153
ATCACTAG	-0.158
GTACGCAC	-0.24
GAGTCCAA	-0.246
CAGCTGTA	-0.062
CACCGGTA	0.376
TATTCGAA	-0.184
CTAGTCCC	-0.233
AATGTACT	-0.0181
CAACAGAC	-0.15
TGACGGCA	-0.0528
GTCAACAC	0.00097
ACGGCTCG	0.263
CAGAAAAC	-0.136
GACGGAGC	0.178
ACAATCAA	-0.0486
CCCTAGCG	-0.291
AACGACAA	0.0299
AAATGATG	-0.00299
CACATTCG	0.0639
ATTACCGA	0.348
AGTCCACG	0.0474
ATCGGTGA	0.214
AGATTATC	0.00768
AATGCTCA	-0.259

Sequence	PBM E-score
CCGTTATC	0.385
AGCGAAGG	-0.0317
CTCCCTAA	-0.155
ATGACCGC	0.197
CTTTCCGA	0.316
CGCGAACA	0.0947
AATTGCTC	0.0545
ACTGATCA	-0.132
CCGCTTTA	0.165
GCCCGAAA	0.342
ATAGATTA	-0.0571
CATCGCAG	-0.142
GCCGTCCA	0.0557
AGACGCTG	-0.141
GGGTGTTA	0.0847
GGCTTCCA	-0.0479
ATGATAAC	-0.135
ATGCAACG	-0.0754
AGGTATGA	-0.0537
ACAACGTC	0.0546
CGCCCCTC	-0.0292
CACGGGTC	-0.015
GGATTCCA	0.0677
GACGGTAC	0.142
CACCATGA	0.0355

Sequence	PBM E-score
ATCACATA	-0.0284
CAGATCTA	-0.306
GATGAGCC	0.00556
GCGTAAGC	-0.106
CCGTGTAG	0.0128
CAGCTATA	-0.0816
ATGCATAG	-0.269
CGCTAAGA	0.23
CTCAGTCC	-0.097
CAACCATA	-0.174
CGCGTGCA	-0.101
CGAATCAA	0.0153
CTGTAGTC	-0.0677
ACTAGCAG	-0.265
AGCTCTAC	-0.239
CCTTGCCA	-0.153
ATACTAAG	-0.0852
GAATTCCC	0.0182
CCGAGAAA	0.4
ATGCTGCC	-0.112
GAAGCGCA	0.0591
GCCTCTAC	-0.12
AGGGTCAA	-0.0982
CCAGCAGC	-0.13
ATAAGTTA	-0.121

Sequence	PBM E-score
GGTAATAC	0.247
AGCCCTTA	-0.128
GTCGTAAC	-0.164
ACCGATAA	0.443
ACGTCAGT	-0.0702
GACGTATA	0.03
CACGCCAA	-0.148
ATAAAAGC	0.0726
AGTGGTTC	-0.034
TTACCAAA	-0.0884
GATGAGGC	-0.0801
CCTGTACG	-0.0933
AGTGTCGG	0.311
CACGTCGG	0.28
CAATCGGA	0.394
AGAAAAGG	-0.0978
GATGATAC	0.0542
TACATACA	-0.1
ATAAACGG	0.163
GCTAATAA	0.0364
GCCCGCGC	0.32
AATCGTCA	-0.127
CAGGCAGG	-0.111
ACCGTAGG	-0.166
CACCCCTG	-0.165

Sequence	PBM E-score
AATCGTGA	-0.0626
CCTATCCG	0.102
CGGCGACG	0.255
CGCGTTAA	0.112
GGGAGATA	0.268
CCGATCGC	0.169
AGAGAATC	-0.0748
CGAACACA	0.00679
TCATCGAA	-0.0493
AGTATGAT	0.0336
ACGTTTTG	-0.289
CGCGGTTA	0.218
GGCGAGCA	-0.0381
CCGGTGAG	0.249
GTCTAAAA	-0.0961
GGATTGCA	-0.00418
AAAGGTGA	-0.264
ATCCCCCA	-0.233
GCCTAAGC	-0.0891
ACTGGAAG	-0.155
GAACGCCC	0.0549
ACGAGCGC	-0.00987
AATTTGGC	-0.0688
AATTACGT	-0.0957
ATGTGATA	-0.244

Sequence	PBM E-score
AAGACGGG	0.0522
GACCGTAA	0.133
AGACGGAC	0.219
CAGCTCTC	-0.178
GCATTACC	0.165
CAGCAGTA	-0.352
TAGGACTA	-0.0962
AAATCTTG	-0.0381
AACGTCGA	-0.199
CAAACGTG	-0.182
CACAATAG	0.033
TAGCATAA	-0.0142
GGCCGGAA	0.363
ACGGTAGC	-0.117
CTCGCTTC	0.168
ACATATGG	-0.228
GGCGCAGA	-0.0243
CTACAACC	0.0866
CGCACTCA	0.0884
CGATAGAG	0.259
ATTCCAAA	-0.125
TGACCACA	-0.245
GGCCGGCA	0.345
AAACATAG	-0.21
ACTTCTAG	-0.146

Sequence	PBM E-score
CCATTGTC	0.0509
AAGTGCGG	0.245
ATTGGGGG	-0.153
AGCCGTAG	0.0861
ACAATAGA	0.00195
GCCAGTAA	-0.106
ACATGTTC	-0.146
CGGCCGCC	0.274
AATTGTGC	-0.0759
CCTATCGA	-0.275
CTCCCACC	-0.086
CGTCAGGC	-0.0931
GAGGCCGA	0.248
TAATAGGA	0.0428
GCGTACGA	-0.0387
ACTTTATG	-0.17
CGTCTAGA	-0.116
GATGCCAA	-0.205
CCACGACG	-0.0495
CGTGCTCA	-0.0549
AGGGTTTA	-0.075
TCTTTAAA	-0.111
ATTGAGGG	0.0196
AGACTCAC	-0.24
CCGCTCCC	0.0412

Sequence	PBM E-score
ATAAGTAT	0.0298
CTTCGTTA	-0.217
CAGGTTAG	-0.203
ATATCTAG	-0.215
ATTCGCCG	0.295
CGCGTAAG	0.0955
CGACACCA	-0.0201
CAGCGCCA	-0.174
CAATTATC	0.253
GTAGCGAA	-0.0922
ACGTTAAA	-0.104
AAACTATG	-0.0719
CCCTGCGC	-0.167
TCGTGTCA	-0.212
ACTGATTA	-0.159
CGTTAAAG	0.0984
CGTGCTTC	-0.0734
CCACGTAG	-0.147
AAGGGGCG	-0.00882
AAGACCAA	-0.186
GCGCTTCA	0.00359
GAGACTGC	-0.024
ATCACCCC	0.0285
AACTTATC	0.15
GCGCGTCC	0.0368

Sequence	PBM E-score
AGCCCAGA	-0.0529
CCTAGCCG	0.236
CTAAAAAC	-0.064
ACAACAGA	-0.186
CGTACTTC	0.0549
ATAGGCAG	-0.148
ACATATCG	0.176
CGCACCTA	-0.0638
TACCCGAA	0.28
GAGGTTCA	0.00726
CATTTCTC	-0.0203
GCACTGCC	0.171
TGAGAAAA	-0.148
AACCCCCA	-0.217
CAGCGGCC	0.147
AAACCGAT	0.305
ATGTGGTG	-0.0677
CGTTATAG	-0.0475
GCGGCTCA	0.073
ACGACCAC	-0.134
AGAGGCGC	-0.199
GGCTAGAA	0.00648
ACGCCCCT	-0.17
AGAGTGAA	-0.161
CGGCGCCC	0.12

Sequence	PBM E-score
GAGCTCAA	-0.00973
AGCGGATA	0.326
ATCGGGGA	0.386
CGGCTCTC	0.0925
CTAACAAG	-0.287
ACGTTCCT	-0.121
ACCAAGAG	-0.188
GGAATACA	0.182
CTGTACAG	-0.213
AGGATCCT	-0.0816
CTTTGGGA	-0.136
GCAACAAA	-0.07
CGAAGCTA	-0.0412
CCGACAGA	0.337
CGCCTCTA	-0.0298
CCCCACAA	-0.0864
ACATTACG	0.0279
ATGCTTGC	-0.153
ACGGAGGA	0.211
